# Measured values taken from ChEMBL document CHEMBL4888484, “Replenishing the malaria drug discovery pipeline: Screening and hit evaluation of the MMV Hit Generation Library 1 (HGL1) against asexual blood stage Plasmodium falciparum ,using a nano luciferase reporter read-out” (2022).
# Out of some 150,000 compounds screened, about 540 (0.36%) showed an effect of 50% or more. The list shows a part of the results.
# Test system: Plasmodium falciparum
# Experiment: Primary screen in NF54 nanoGlo assay, in single point, at 2uM, 72h; a lower Z score goes with more inhibition
# Assay type: functional, Erythrocyte
# Settings: timepoint 72 hour
SMILES,% Inhibition,Z score
C=CCOCCCC(=O)N1CC2(CC2)c2ccccc21,-4%,0.72
O=C1OCCN1CCN(C[C@H](O)c1ccccc1)C1CC1,-12%,1.03
CC(C)NC(=O)CN1CN(c2ccccc2)C2(CCN(S(=O)(=O)c3cccc(C(F)(F)F)c3)CC2)C1=O,-12%,1.42
O=C(CCn1cccn1)NS(=O)(=O)Cc1ccc2c(c1)COC2,6%,-1.01
C[C@]1(CO)CN(Cc2ccncc2Cl)c2ccccc2O1,-14%,1.74
O=C(NCc1ccc(Cn2ccnc2)cc1)c1ccccc1O,-2%,0.3
Cn1cc(-c2noc(C3CC(O)(C4CCCCC4)C3)n2)nn1 (stereo not given),-16%,2.53
COCC(=O)N[C@@H](CC1CCC1)c1ccccc1,-8%,1.26
CC(C)c1ncc(C(=O)NCCc2csc(N3CCCC3)n2)s1,-14%,1.92
Cc1cc(F)ccc1C1CCN(c2ccc(C(=O)N(C)C)nn2)CC1,3%,-0.47
C[C@]1(O)CCCN(Cc2cc3cc4c(cc3nc2-c2ccc(Cl)cc2)OCO4)C1,-4%,0.46
COc1ccc(C)cc1CN1C(=O)N[C@](C)(c2ccccn2)C1=O,-5%,0.64
COc1ccc(NC(=O)CN2C(=O)CCc3cc(S(=O)(=O)N4CCCC4)ccc32)cc1Cl,-8%,1.59
CCCCNC(=O)N1CC(C(=O)NCCc2ccc(OC)cc2)CCC1c1ccccc1 (stereo not given),12%,-1.4
O=C(Nc1nccn(C2CC2)c1=O)[C@H]1CC[C@@H](c2ccccc2)O1,-41%,4.81
COc1ccc2cc(-c3nc(CCN(C)C(=O)c4ccc(C)cc4)no3)[nH]c2c1,-8%,1.58
CCOc1ccc(NC(=O)Cn2nc3c(N4CCCCC4)nc4ccccc4n3c2=O)cc1,4%,-0.61
CC(=O)N1C[C@@H]2C[C@H](NC(=O)Cc3cccc(F)c3)CN2C(=O)[C@@H]1C,-26%,2.28
CC(C)CN1C(=O)[C@]2(CC(=O)Nc3[nH]ncc32)c2cccc(Cl)c21,-1%,0.12
CC1CC(N2CCOC(c3nc(-c4ccccc4)cs3)C2)C(=O)O1 (stereo not given),-13%,1.8
Cc1ccc(C(C)C)c(Oc2ccc(Cl)cc2NC(=O)c2cc(Br)cc(Br)c2O)c1,-8%,1.13
COCC(=O)NC1CN(S(=O)(=O)c2ccc3c(c2)OCCCO3)C1,-3%,0.59

SMILES,% Inhibition,Z score
COC1CC(NC(=O)NC(C)C2CCC(F)(F)CC2)C12CCC2 (stereo not given),-3%,0.48
CN(CCO)c1ccc(-c2cnn(C)c2)nn1,2%,-0.2
C[C@@H](COCC1CC1)NC(=O)c1c2ccccc2nn1C,-5%,0.86
CC(=O)NCCCNC(=O)COc1cccc(Cl)c1C,-9%,1.49
O=C1NCC2(CN(C(=O)c3cn4cc(Cl)cc(Cl)c4n3)C2)O1,-5%,0.71
CCC[C@H](C)NC(=O)Cc1cccc(F)c1,-8%,1
COc1ccccc1CCNC(=O)C1CN(C(=O)c2cccs2)C1,-9%,1.47
Cc1ccn(CCC(=O)N[C@@H](C)c2nncn2C2CCCC2)n1,-10%,0.94
COc1ccc(CCNc2nc3c(c(=O)[nH]2)CCC3)cc1OC,-9%,1.24
Cc1ccc(S(=O)(=O)CCc2ccncc2)cc1,-2%,0.16
C[C@H]1CN(C(=O)c2cc(F)cc3nccnc23)CCN1,-10%,1.14
CN(C)c1cnc(C(=O)N2CCN(Cc3ccccc3)C(C)(C)C2)cn1,-13%,2.19
NC(=NCc1cccc2cccnc12)N1CCN(c2nccs2)CC1,57%,-10.38
O=C(NCCN1CCCCC1)c1nc(Cc2ccccc2)n(-c2ccccc2)n1,-13%,1.8
CCc1ccc([C@@H]2CCCCN2C(=O)c2cn(CC(F)(F)F)nc2C)o1,10%,-1.33
C[C@](O)(CNc1ncnc(N)c1Cl)C1CC1,-3%,0.64
CN=C(NCc1cccs1)NCc1ncc(C)s1,8%,-0.95
CC(C)n1cnnc1CN(C)c1cc([C@H]2CCOC2)ncn1,-12%,2.22
COc1cccc(S(=O)(=O)N2CCC(c3cc(N)on3)CC2)c1,19%,-2.95
O=C(CCS(=O)(=O)c1ccccc1)N1C[C@H]2CC[C@@H](C1)N(CC1CC1)C2,-6%,0.77
C=CCNC(=O)C(=O)NCc1ccc(F)cc1,-11%,1.47
Cc1nc(C)c(-c2ccc([C@H](C)N(C)C)cc2)s1,-8%,1.48

SMILES,% Inhibition,Z score
CC1OCCC1C(=O)NC(C(N)=O)c1ccc(F)cc1 (stereo not given),-2%,0.33
N#Cc1nc(N)n(CCNC(=O)C2CCCC2)c1C#N,-16%,1.77
CCn1cncc1CN1CCn2nc(C#N)cc2C1,6%,-1.11
COc1ccc2c(c1)[n+](CC(=O)c1ccc(-c3ccc(Br)cc3)cc1)c(CO)n2C,70%,-5.57
CCS(=O)(=O)Cc1noc(-c2cc(-c3ccccc3)no2)n1,-6%,1.11
Cn1ccnc1-c1ccc(C(=O)N2CC[C@@H](O)C2)cc1,-6%,0.82
O=C(c1cccc(F)c1)N1Cc2ccccc2-c2ccccc2C1=O,-5%,0.86
CNC(=O)C1CCN(c2nc3ncn(CC(=O)Nc4ccc5c(c4)OCO5)c(=O)c3s2)CC1,-19%,1.64
COc1ccccc1NC(=O)N1CCc2nc(NC(=O)c3ccco3)sc2C1,-4%,0.62
Cc1nc2c(ccc3ccccc32)c(O)c1CN1CCOCC1,3%,-0.34
COc1ccc(C[C@H]2CCOC3(CCNCC3)C2)cc1,5%,-0.62
Cc1cc(C(=O)N2CC[C@@](O)(C3CCOCC3)[C@H](C)C2)sc1C,-5%,1.07
O=C(Cn1ccc2ccccc21)O[C@@H](c1ccccc1)c1ccccn1,16%,-1.83
CCC(C(=O)NC1CCCC(OC(=O)Nc2ccc(F)cc2)C1)c1ccccc1 (stereo not given),-21%,3.95
Cc1n[nH]c(C)c1[C@@H](C)CC(=O)NCc1cc(Cl)c2c(c1)OCO2,-7%,0.91
C#CCNC(=O)C1CCCC1C(=O)NCC#C (stereo not given),-1%,0.08
CNc1ncc(-c2cc(C(=O)N3CCCCCC3)c3c(C)cc(C)cc3n2)cn1,2%,-0.32
Cc1ccc(-c2nccn2C[C@H]2CCCN(CCO)C2)c2cccnc12,7%,-1.1
CCc1nc2c(c(OC3CCN(C(=O)c4ccn(CC)n4)CC3)n1)CCOCC2,-11%,1.12
CC(C)Oc1ccc(NS(=O)(=O)C2CC2)c(Cl)c1,28%,-3.99
CCc1c(C)nc(N)nc1N1CCC[C@H](c2nnc(CO)n2C)C1,-6%,1.19
CNc1cc(-c2noc([C@H]3C[C@@H]3c3ccco3)n2)ncn1,-11%,2.13

SMILES,% Inhibition,Z score
COCC1(C)NC(=O)N(C2CCCN(c3c(C)cc(Br)cc3C)C2=O)C1=O (stereo not given),-14%,2.33
COc1ccc(CCNC(=O)c2cc(-c3ccccc3OC)nc3n[nH]c(-c4ccc(F)cc4)c23)cc1OC,-16%,1.43
C[C@H]1C(=O)N(CC2CCOC3(CCC3)C2)C(=O)N1C (stereo not given in full),-6%,1.23
Cc1noc([C@@H]2[C@@H](C)OCCN2Cc2cc(C(F)(F)F)nn2C)n1,-9%,1.03
Cc1ncsc1CCOc1ccc(N)cc1,30%,-3.44
CN(C)c1nc(N2CCN(c3ccc(F)cc3)CC2)nc2c1CN(S(=O)(=O)c1ccc(Cl)cc1)CC2,-5%,0.99
COc1ccc(-c2csc3nccn23)cc1,-9%,1.15
CCOc1ccc(-c2nsc(NC(=O)c3cccs3)n2)cc1OC,8%,-1.2
O=C(Nc1ccc(O)cc1)C(=O)Nc1nc2ccccc2s1,-16%,2.45
CCn1ccnc1C(=O)N(C(C)C)C1CC(C)(C)C1,-12%,1.82
Fc1ccc(CNC2CCN(c3ccc4c(c3)OCO4)CC2)c(F)c1,-9%,1.7
Cc1nccn1-c1ccccc1CNC(=O)c1cc(S(N)(=O)=O)ccc1F,-6%,0.82
O=C(Nc1nnc(COc2ccccc2)o1)c1ccccc1,17%,-2.38
NC(=O)C1CCCC(C(=O)NS(=O)(=O)C2CCC2)C1 (stereo not given),-2%,0.27
Cc1csc(-c2cnc(C=Cc3ccnn3CC3CC3)[nH]c2=O)n1,-10%,1.35
Cc1occc1C(=O)Nc1ccc2[nH]c(=O)[nH]c2c1,-5%,0.8
Cc1cccc(NC2CCN(S(=O)(=O)c3cccs3)CC2)n1,0%,0.03
Cc1noc(C)c1C(=O)NC[C@H](O)c1ccc(-c2ccco2)o1,2%,-0.26
O=C(Cc1ccc(F)cc1F)N1C[C@@H]2CN(CC3CCC3)C[C@]2(C(=O)O)C1,0%,-0.02
